{"source": "PubChem BioAssay AID2101", "about": "(National Center for Advancing Translational Sciences (NCATS), 2009)", "note": "The whole screen tested about 330,000 compounds, of which about 300 (0.091%) were called active. Inconclusive means that the source gave no clear call. Such entries were picked first, then a sample of the others. Calls follow the shape of the dose curve; as a rule, active = well fitted inhibition curve with a large enough effect; inconclusive = small, poorly fitted or top-dose-only effect, or effect the other way, or another doubt; inactive = no such curve, though single readings can be large or run the other way. Potencies of inconclusive entries are left out as doubtful fits. Potency is read from the fitted curve at half-maximal effect."}
{"molecular_target": "Lysosomal acid glucosylceramidase (Homo sapiens) (UniProt P04062)", "test": "qHTS Assay for Inhibitors and Activators of N370S glucocerebrosidase as a Potential Chaperone Treatment of Gaucher Disease;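 as to activity change, negative = inhibition: 0% = full enzyme activity and -100% = no enzyme basal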", "conditions": "N370S GC spleen homogenate, 4MU-glucoside fluorescence; activity change, negative = inhibition: at 59.4 µM (top of the series) unless noted"}
{"compound": "Cc1ccc2sc(-c3ccc(NC(=O)/C=C\\C(=O)O)cc3)nc2c1", "Potency": "inconclusive [activator, single point]"}
{"compound": "CCCCSc1c(C)c2cc3c(cc2[nH]c1=O)OCO3", "Potency": "inconclusive [activator, full curve]"}
{"compound": "O=C(CNC(=S)N(Cc1ccccc1)Cc1cccnc1)NC1CCCCC1", "Potency": "inconclusive [inhibitor, single point]"}
{"compound": "O=c1[nH]cnc2nc(-c3ccccc3)c(-c3ccccc3)nc12", "Potency": "inconclusive [activator, single point]"}
{"compound": "CCc1cccc(CC)c1N(COC)C(=O)Cn1cnc2ccccc21", "Potency": "inconclusive [activator, partial curve]"}
{"compound": "Cc1cnc(C(=O)NCCc2ccc(S(=O)(=O)NC(=O)NC3CCCCC3)cc2)cn1", "Potency": "inconclusive [inhibitor, single point]"}
{"compound": "CC1CCCCN1CCn1cnc2c([nH]c3ccccc32)c1=O", "note": "(stereo unspecified)", "Potency": "inconclusive [inhibitor, single point]"}
{"compound": "CC(=O)Nc1sc2c(c1C#N)CCCC2", "activity change, negative = inhibition": "inconclusive: 31.4% [activator]"}
{"compound": "Cc1ccccc1-n1c(=O)c(C#N)cc2c(=O)n3ccccc3nc21", "Potency": "inconclusive [activator, single point]"}
{"compound": "Cc1cc(C)nc(Nc2ccc(C(=O)O)cc2)n1", "Potency": "inactive"}
{"compound": "COc1ccc(NS(=O)(=O)c2ccc(NC(=O)C3CC3)cc2)cc1", "Potency": "inconclusive [inhibitor, single point]"}
{"compound": "O=C(c1ccccc1)c1c[nH]c(C(=O)NCc2cccnc2)c1", "Potency": "inactive"}
{"compound": "C=CCn1c(SCC(=O)Nc2sccc2C#N)nc2sc(C)c(C)c2c1=O", "Potency": "inconclusive [activator, partial curve, poor fit]"}
{"compound": "c1cc(-c2cnn3cc(-c4ccc(OCCN5CCCCC5)cc4)cnc23)ccn1", "Potency": "inactive"}
{"compound": "Cc1occc1C(=O)NNC(=O)c1ccccc1Br", "Potency": "inactive"}
{"compound": "COc1cccc(NC(=O)Nc2ccccc2Br)c1", "activity change, negative = inhibition": "inconclusive: 35% [activator]"}
{"compound": "C=CC[n+]1c(-c2ccc(C)cc2)csc1Nc1ccc(NC(C)=O)cc1", "Potency": "inactive"}
{"compound": "Cc1ccc(S(=O)(=O)N2CCN(c3ccc(C(=O)N4CCOCC4)cc3[N+](=O)[O-])CC2)cc1", "Potency": "inactive"}
{"compound": "CCC1=NN(C(=O)c2cccc(Br)c2)C(O)(c2ccc(Br)cc2)C1", "note": "(stereo unspecified)", "activity change, negative = inhibition": "inconclusive: 17.9% [activator]"}
{"compound": "COc1cc(SC)ccc1C(=O)N1CCN(c2ccccc2)CC1", "Potency": "inactive"}
{"compound": "CC(C)(C)c1ccc(C(=O)Oc2ccccc2CCC(=O)O)cc1", "Potency": "inconclusive [inhibitor, single point]"}
{"compound": "COc1ccccc1Oc1ccnc2cc(Cl)ccc12", "Potency": "inconclusive [activator, single point]"}
{"compound": "COc1ccc2nc3oc(C(=O)N4CC(C)CC(C)C4)cc3cc2c1", "note": "(stereo unspecified)", "Potency": "inconclusive [activator, single point]"}
{"compound": "Cn1c(=O)c(=O)n(C)c2cc(N3CCCCC3)c(NS(=O)(=O)c3ccc(Br)cc3)cc21", "Potency": "inconclusive [activator, full curve, poor fit]"}
{"compound": "CCN(CC)c1cc(C)c2cc(NC(=O)c3cccs3)ccc2n1", "Potency": "inconclusive [inhibitor, partial curve]"}
{"compound": "Clc1cccc(CN2CCc3c([nH]c4ccccc34)C2)c1", "Potency": "inconclusive [inhibitor, partial curve]"}
{"compound": "COC(=O)C1=CN(c2cccc(Cl)c2)C=C(C(=O)OC)C1c1cccc(OC)c1", "Potency": "inconclusive [activator, single point]"}
{"compound": "COc1ccc(C)cc1NC(=O)COC(C)=O", "Potency": "inconclusive [inhibitor, single point]"}
{"compound": "CN(C)c1ccc(CNC(=O)C2(C)C=CCN2C(=O)c2ccccc2)cc1", "note": "(stereo unspecified)", "Potency": "inactive"}
{"compound": "C#CCOCCOCCOCCNc1nc(N2CCN(C(=O)[C@H](C(C)C)n3cc(CCO)nn3)CC2)nc(N2CCN(C(=O)[C@H](CCCCN)n3cc(CCCC)nn3)CC2)n1", "Potency": "inconclusive [inhibitor, single point]"}
{"compound": "Clc1cc2nc3ccccn3c2cc1Cl", "Potency": "inactive"}
{"compound": "S=c1[nH]nc(Nc2ccccc2)s1", "Potency": "inconclusive [inhibitor, single point]"}
{"compound": "Cc1cc(Br)ccc1OCC(=O)N(Cc1nc(-c2ccccc2)no1)C(C)C", "Potency": "inconclusive [activator, partial curve]"}
{"compound": "Cc1ccccc1CC1(CO)CCCN(C(=O)c2cc(Cl)ccc2F)C1", "note": "(stereo unspecified)", "Potency": "inconclusive [activator, single point]"}
{"compound": "Cc1cc(C2(c3ccc(O)c(C)c3)C(=O)Nc3ccccc32)ccc1O", "Potency": "inconclusive [inhibitor, single point]"}
{"compound": "Cc1ccc2nc(-c3ccc(N4C(=O)CC(N5CCN(CCO)CC5)C4=O)cc3)sc2c1", "note": "(stereo unspecified)", "Potency": "active: 17.8 µM"}
{"compound": "c1ccc(CSCc2cn3ccsc3n2)cc1", "Potency": "inactive"}
{"compound": "Cc1cc(NC(=O)C(C)Sc2nc(-c3ccccc3)cc(=O)[nH]2)no1", "note": "(stereo unspecified)", "Potency": "inconclusive [activator, single point]"}
{"compound": "COc1ccc(Nc2ncc3c(n2)CC(c2ccc(C)cc2)CC3=O)cc1", "note": "(stereo unspecified)", "Potency": "inconclusive [inhibitor, full curve, poor fit]"}
{"compound": "CCCCNC(=O)Nc1ccccc1CC", "Potency": "inconclusive [activator, partial curve]"}
{"compound": "CN(CC(=O)Nc1cccc(F)c1)C(=O)c1cc(-c2ccco2)nc2ccccc12", "Potency": "inconclusive [activator, partial curve]"}
{"compound": "COc1ccccc1C(CCN(Cc1ccccc1)C(C)=O)c1ccco1", "note": "(stereo unspecified)", "Potency": "inconclusive [activator, partial curve]"}
{"compound": "c1coc(-c2nc3nc4ccccc4nc3n2CC2CCCO2)c1", "note": "(stereo unspecified)", "Potency": "inconclusive [activator, partial curve]"}
{"compound": "CCc1cc(-c2n[nH]c(C)c2-c2ccc3c(c2)OCCO3)c(O)cc1O", "Potency": "inconclusive [inhibitor, full curve, poor fit]"}
{"compound": "Nc1nc(C23CC4CCC(CC(C4)C2)C3)cs1", "Potency": "inconclusive [inhibitor, single point]"}
{"compound": "CC(NC(=O)OC(C)(C)C)C(=O)Oc1ccc2ccc(=O)oc2c1", "note": "(stereo unspecified)", "Potency": "inconclusive [activator, partial curve]"}
{"compound": "CCCCC1=CC2=C(OC(C)=O)C(=O)C(C)(OC(=O)c3ccc(Cl)nc3)C(=O)C2=CO1", "note": "(stereo unspecified)", "Potency": "inactive"}
{"compound": "CC(C)(C)/C(O)=C/c1nc2ccccc2[nH]c1=O", "Potency": "inactive"}
{"compound": "O=C1CCc2cc(S(=O)(=O)N3CCCC3C(=O)NC3CCCCCCC3)ccc2N1", "note": "(stereo unspecified)", "Potency": "inconclusive [inhibitor, partial curve]"}
{"compound": "COC(=O)c1ccc(Sc2ccc(Cl)cc2)c(N)c1", "Potency": "inactive"}
{"compound": "O=C(CSc1nnc(-c2ccc(F)cc2)c2ccccc12)Nc1ccccc1Cl", "Potency": "inconclusive [activator, partial curve]"}
{"compound": "N#C/C(=C\\c1ccc(O)c(O)c1)C(=O)N1CCc2ccccc21", "Potency": "inconclusive [inhibitor, single point]"}
{"compound": "CCCC/C=C1\\CCc2c([nH]c3ccccc23)C1=O", "Potency": "inconclusive [activator, full curve]"}
{"compound": "O=C(c1c[nH]c2ccc(S(=O)(=O)N3CCOCC3)cc2c1=O)N1CCCC1", "Potency": "inconclusive [activator, partial curve]"}
{"compound": "Cc1ccccc1Nc1c(N)c(=O)oc2ccccc12", "Potency": "inactive"}
{"compound": "Cc1cccn2c(=O)c3cc(C(=O)NC4CCCCC4)n(C)c3nc12", "Potency": "inconclusive [activator, single point]"}
{"compound": "Cc1cccc2cc(CN(CC3CCCO3)C(=S)NCc3ccco3)c(=O)[nH]c12", "note": "(stereo unspecified)", "activity change, negative = inhibition": "inconclusive: 24.9% [activator]"}
{"compound": "COc1ccc2[nH]c(=O)c(CN(C(=O)c3ccco3)C(C)C)cc2c1", "Potency": "inconclusive [activator, partial curve, poor fit]"}
{"compound": "Cc1cc(C(=O)COC(=O)c2ccc(O)cc2)c(C)n1CC1CCCO1", "note": "(stereo unspecified)", "Potency": "inactive"}
{"compound": "CN(C)c1ccc(C=Nc2ccc(N(C)C)cc2)cc1", "Potency": "inactive"}
{"compound": "CCCCCCCCNC1=CC(=O)CC(C)(C)C1", "Potency": "inconclusive [activator, partial curve]"}
{"compound": "CCOC(=O)CNc1c(-c2ccc(OC)cc2)nc2ccc(Cl)cn12", "Potency": "inconclusive [inhibitor, partial curve]"}
{"compound": "N#Cc1ccccc1OCc1nnc(-c2ccccc2Br)o1", "Potency": "inactive"}
{"compound": "O=c1c(Br)c(Br)cnn1-c1ccccc1", "Potency": "inactive"}
{"compound": "O=C(COc1cccc(F)c1)N1c2ccccc2Sc2ccccc21", "Potency": "inconclusive [activator, partial curve]"}
{"compound": "CCC(C)[C@H](NC(=O)[C@H](Cc1ccccc1)n1c(=O)[nH]c2ccccc2c1=O)C(=O)N1CCC(C(=O)O)CC1", "note": "(stereo partly specified)", "Potency": "inconclusive [activator, single point]"}
{"compound": "CC(Oc1ccccc1C(N)=O)C(=O)Nc1ccc(S(=O)(=O)N2CCCC2)cc1", "note": "(stereo unspecified)", "Potency": "inconclusive [inhibitor, single point]"}
{"compound": "CC(C)[N+]1(C)[C@@H]2CC[C@H]1CC(OC(=O)[C@@H](CO)c1ccccc1)C2", "note": "(stereo partly specified)", "Potency": "inactive"}
{"compound": "CN(C)/C=N/c1sc2c(c1C(N)=O)CCCC2", "Potency": "inconclusive [activator, partial curve]"}
{"compound": "CCCCNc1ccc(C(=O)OCCN(C)C)cc1", "Potency": "inconclusive [inhibitor, single point]"}
{"compound": "O=c1[nH]c2ccccc2nc1/C=C/c1ccc(F)cc1", "Potency": "inconclusive [activator, partial curve]"}
